Results: the RNAGym collection of RNA variant scans (doi:10.7554/elife.90254)
Read counts are not given, so values of variants with three or more changes are uncertain.

B1: LINE1-full (parent)
chain: UACGUAGGUGGUUUUCCCCUGAUAGUGCUAAGGGGGCCUGGAAGUUUGGACUGGGCAGAGCUCAACACAGCGUGGCAAAGUGGCUGUGGCUAGACUGCCUCUCUGGAUUCCUCGUCACUCAGCAGGGCAUCUCUGAGAGAAAUGCC

Variants of: B1
Assay: self-cleavage, relative activity (ratio to wild type); higher = more cleavage; in vitro, sequencing; the parent is a self-cleaving ribozyme

Variant | self-cleavage
A24U C76G A77G | 2.15
U20A C37U G54A | 0.21
A22G G48A U62C | 0.05
C61A A92G U130C | 0.07
U9C U12G A78U U143C | 1.4
U15A U23C C28U U39A | 0.64
A79G U87C A138G | 0.3
U1C U39A A142G | 1.47
A6G A124G U132A | 0
A78G A129C G139A | 1.87
A2U U12C A22G A94G | 1.15
A50C U62C A142G | 0.12
U12C A59U U62C A138U | 0.05
U52A U87A U143C | 0.09
U15C A43G A64C G70C | 0.08
U12G A121U A141G | 1.44
U13C A50G U87C G127A G139U | 0.69
A59G C61U A69U U115C | 0.06
U52G G127A U143C | 1.42
C99U U108C U109C A124G | 0
U14C A43G U112C | 0.34
U13C A24U A64U | 0.7
C90A U104C A124G | 0.09
U5C U46A A79G | 2.04

Variant | self-cleavage
U20C C113A A124G | 1.46
G32A A77U A141G | 1.56
U12A U46A G114A A121G | 1.31
A31G U39C C113U | 0.67
U9A U29A U45C A117U | 0.84
U45G A69C U108C C113A A121G | 0
A30U A42G U119C | 1.53
U1C U12G U47C G58A C71U | 0.18
G60A C76U A77G U91C U112C | 0.02
G4A A64U A117U U130C U132C A140G | 0.54
G114A U130C U132A | 1.3
U15C A22G U46A | 1.65
U14C U47A G114A | 0.85
U13A U20C C84U G86A A94G A138G | 0.03
G7A U13C A136G | 1.22
U26A A59U A67U A124G | 0.02
U29C A43G U112C | 1.67
U12G U13C U102A A141G | 1.62
A24U A31G A79U | 1.2
G36A A77G A129G | 2.3
G25U U45C A121U | 1.47
A24G U85C A117G C133U | 0
U52A A107U U108C | 1.52
U104C U119C U143C | 1.02

Variant | self-cleavage
A42G G88A U130C A138G | 0.05
U1C A6G G114A | 0.87
A42U A43G U100C A117G | 2.63
U15C U23A U73A | 1.21
C18A U26A A67G | 0.63
G58U A67G U132C | 0.03
U13C U73A A92G | 0.16
U13C A64U A65G | 0.16
G8C C19U U62C | 0
U1G C37U A64G A65G U87C A121U | 0
U9C G21A G33A C133A | 1.08
C3U A50G A117U | 0.32
G11A U13G U62C C113A C128G | 0
U14C U85C U104C | 0.21
U14C G34U A50U | 1.2
U14C C56U A57G A69U A78U U130C C131U | 0.06
U15A A24G U85A U108C A141G U143C | 0
U13C A31U A57U | 0.05
C71U A78G U109C A124G | 0.19
A42G A43U C99G C118U A124U | 0.39
U12C U26A U85C U143C | 0.3
G40A A64G U134C | 0.18
U13C U46C U73A | 1.7
A42G U46A A64G G114U | 0.19

Variant | self-cleavage
U108C U132C A136G U143C | 2.45
A64G U87A U104C | 0.13
U13C U29C A57U | 0.36
U12C A59G A142G | 0.13
A2G U45C C110A | 0.69
A24C U96C U100C | 0.61
A43U U62C U115C | 0.19
U15A A64G U81A | 0.13
U45C A77U U100A | 1.06
A50G U102A G114A U130A A142G | 1.18
U62C A92G A142G | 0.14
C3U A64U A121G | 0.27
U13C U46G U112C | 2.14
A30G A64U A129G A140G | 1
A2G G32A A121U U134C A142G | 1.25
A31G A107G A117U | 1.41
U15A U85C C99U | 0.14
A69G U96C U109A | 0.09
U20A U23C C37U A50G U73C U132C | 0.73
U23A U85C C98U U109C | 0.17
U5A U13C U15C U85C | 0.27
A2G C76U U96C U115A A141G | 0.18
A6U U14C G40U A69G A92U U112A A138U U143A | 0.16
U15C A117U U134A | 0.96

Variant | self-cleavage
A94G A121U A141G | 0.41
G35A A67G U85A A107G | 0.05
U13A A43G U109A | 0.99
A31G A94U A121G A136U | 0
U9C U14C U20C C37U | 0.57
A2G U26A G97A | 0.26
G27A G34A U119C | 0.9
U23C A77U U112C U134C A138G A142G | 1.53
A50U A67G A140G | 0.31
A65G U73G A78G | 0.1
A64U A92U U104G | 0.18
A24G A64G U96C A107G A124U | 0
C38U U85A A94U U102C A129G A136G A140G | 0
U13C U91C U115A | 0.91
U108A U134A A141G | 1.69
U13A G34A G144A | 1.03
U96C A124U U143C | 0.13
G49C C113U A141G | 1.5
U46C U87A U115C | 0.24
A24G C63U U134A U143C | 0.25
A24G A64U A77G | 1.15
U39A U46C G72A U73C U130C | 1.89
U85C U91C U109A | 0
U13G C56G U96C A140G | 0.1

Variant | self-cleavage
U39C U96C U132C | 0.12
U62C G83A U85C A121C A141G | 0.03
U81C U85A U115C U132C | 0.13
U15G A69G G137A | 0
U47A A138G A141G | 1.4
U47C A64G G127C | 0.4
U9C U13C U14C | 0.92
A43G A117G A124G | 0.46
U9A U47A G86A A121G | 0.04
U14C U15C A57G A117U | 0.88
A42G C113U A138G | 0.44
U20C U39C U47G G74A G114U A141G | 0.86
U9C U13G U23C | 0.77
U9C A31G G32A C68U A77G U87C | 0.11
U47A G49U A117G | 0.72
U14C U52G U96G | 0
A50U C63U U85C U96A U108C | 0.12
A2G A22G A78G | 1.07
A6G A43G A92G | 0.66
U13C U20C U132A A138U A140U | 1.79
G33U G35U A67C A94U U96A U143A | 0.03
A42G A94G U104A A107U A138U | 0.59
U5A U85A U115C A121G | 0.22
U13A U20A C103A U134C | 1.05

Variant | self-cleavage
A59U U100C A124G A141U | 2.16
U104A U134C A138G | 1.99
C28A A42G C90U U119C | 0.07
U45A U46C C61U A67G C84A A142G | 0.04
C38U U45G U102C A140G | 0.9
U12G U20C A107U U132C U143A | 1.1
U45C C116A A121G | 1.92
C95A A121U A138U | 0.07
U13C G88U A124C | 0.2
U20C U26C U46C U100C | 2.63
U13C A22G G36A C56A A121U | 0.13
G34A U100A A117G | 0.47
U85C C111U U119A U134A A138G | 0.21
G21A U46A A117G | 1.45
U12G U45C U62C U73C U104A A136G | 0
U9A U130C A142G | 1.61
U13A U39A A65U A129G U130C | 0.48
A94C G97A U132C | 0.05
U52G A94U A117G | 0
U5A A31U U119C | 0.8
U20A U47C U115C | 2.17
A42G U46C A142G | 1.5
U45C A79G U104C | 0
